In PubChem BioAssay AID1963576 (National Center for Advancing Translational Sciences (NCATS), 2024):
Out of some 46,000 compounds screened, about 60 (0.1%) were called active. Not shown: some 3% with an inconclusive outcome. The call rests on the fitted dose curve; in most records, active means well fitted inhibition curve with a large enough effect; inconclusive means small, poorly fitted or top-dose-only effect; inactive means no such curve, though single readings can be large or run the other way. The list shows a part of the results.

Experiment: Primary qHTS assay for Inhibitors of ovarian cancer metastasis using an organotypic tumor microenvironment (TME) model. Further: nearly all actives have a fitted effect of over 65% in size.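 On Potency: count of GFP cancer cells still attached after washing and fixation.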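 On activity change, negative = inhibition: plate controls were DMSO wells for no effect and tomatine positive control wells for full effect.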
Settings: SKOV3ip1-GFP adhesion/invasion on 3D omental model, fluorescence; series mostly up to 45.8 µM; activity change, negative = inhibition: at the top concentration
Procedure, shortened: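 A 3D layer of primary human omental fibroblasts, mesothelial cells, fibronectin and collagen I, grown 48 hr, received SKOV3ip1-GFP cells in serum-free medium plus compounds at 0.36-46 umol/L. After 2 hr RT and 16 hr 37 C, fixed adherent GFP cells were counted; normalized to DMSO and tomatine.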
Potency means the concentration at half of the fitted maximal effect.

| Compound | activity change, negative = inhibition | outcome | Potency |
| --- | --- | --- | --- |
| Cc1ccc(CN2C(=O)c3ccccc3Sc3ccc(C(=O)N4CCOCC4)cc32)cc1 | inactive: 0.736% |  |  |
| CC1=C(C(=O)N2CCCCC2)C(c2ccc(Cl)cc2)n2c(nc3ccccc32)N1 (stereo not drawn) | inactive: -1.85% |  |  |
| CCOC(=O)c1cccc(NC(=O)CSc2ncc3c(n2)-c2ccc(Cl)cc2N(Cc2ccccc2)S3(=O)=O)c1 | inactive: -34.4% |  |  |
| COc1ccccc1CNC(=O)CCS(=O)(=O)c1ccc2c(c1)oc(=O)n2C | inactive: 4.25% |  |  |
| Cc1c(-c2nsc(NC(=O)c3cccs3)n2)nnn1-c1ccc(F)cc1 |  | inactive |  |
| CCOc1ccc(CNC(=O)CSc2c3c(nc4cc(Cl)ccc24)CCCC3)cc1 | inactive: 26.9% |  |  |
| O=C(NCCc1ccccc1)c1ccc2c(c1)nc1n2CCOC1 | inactive: -4.75% |  |  |
| Cc1ccc(S(=O)(=O)Nc2cc(Cl)c3oc4c(c3c2)CCCC4)cc1 |  | inactive |  |
| COc1ccc(CNC(=O)CCCc2nnc3n(C(C)C)c(=O)c4sccc4n23)cc1 |  | inactive |  |
| O=C(COc1ccccc1F)Nc1ccc2nc(SCC(=O)N3CCOCC3)sc2c1 | inactive: -18.1% |  |  |
| O=S(=O)(c1ccccc1)c1nc(-c2ccc(F)cc2)oc1NCc1ccccc1 | inactive: -8.87% |  |  |
| CC(C)Oc1ccc(C(=O)N(Cc2ccc(N(C)C)cc2)Cc2ccco2)cc1 | inactive: -4.85% |  |  |
| Cc1ccc(OCC(=O)NCC(=O)OCc2cc(=O)n3nc(C(C)C)sc3n2)cc1 |  | inactive |  |
| COc1ccc(C(=O)NC(c2ccccc2Cl)c2cc(Cl)c3cccnc3c2O)cc1 (stereo not drawn) | inactive: -29% |  |  |
| Cc1c(C)n(Cc2ccccc2)c2ccc(C(=O)N3CCN(c4ccccc4)CC3)cc12 | inactive: -1.29% |  |  |
| CCN(CC)S(=O)(=O)c1ccc2c(c1)N(CC(=O)Nc1c(C)cccc1C)C(=O)C1CCCN21 (stereo not drawn) | inactive: 36.6% |  |  |
| CCOC(=O)c1oc2c(c1C)-c1nn(Cc3cccc(Cl)c3)cc1CC2 | inactive: -2% |  |  |
| CCN(C(=O)Cn1c(=O)oc2cc(S(=O)(=O)N3CCCCCC3)ccc21)c1cccc(C)c1 | inactive: 2.68% |  |  |
| CC(=O)O[C@H]1C[C@@H]2CC[C@H]3[C@H]4C[C@H]([N+]5(C)CCCCC5)[C@@H](OC(C)=O)[C@@]4(C)CC[C@@H]3[C@@]2(C)C[C@H]1[N+]1(C)CCCCC1 | inactive: 14.9% |  |  |
| Cn1cc(S(=O)(=O)N2CCCCCC2)cc1C(=O)NCc1ccc(F)cc1 |  | inactive |  |
| O=C(NCc1ccccc1)NC1COc2ccccc2C1 (stereo not drawn) | inactive: 7.51% |  |  |
| Cc1cccc(OC(=O)c2snnc2C)c1 | inactive: 10.7% |  |  |
| COc1ccc(NC(=O)c2nc(SCc3ccc(F)cc3)ncc2Cl)cc1 |  | inactive |  |
| CCOc1ccc(NC(=O)c2sc(-n3nc(C)c(CCC(C)C)c3C)nc2C)cc1 | inactive: -17.1% |  |  |
| Cc1cccc(NC(=O)C(=O)NCCCN2CCOCC2)c1 | inactive: -4.3% |  |  |

| Compound | activity change, negative = inhibition | outcome | Potency |
| --- | --- | --- | --- |
| COc1ccc(CNCc2ccc(C(=O)O)s2)cc1 | inactive: -1.64% |  |  |
| CCOc1ccccc1NC(=O)CSc1ncc2c(n1)-c1ccccc1N(CC)S2(=O)=O | inactive: 1.35% |  |  |
| O=C(NCCc1ccc(Cl)cc1)c1ccc(Nc2nc3ccccc3n3nnnc23)cc1 | inactive: -7.07% |  |  |
| COC(=O)c1cc2sccc2n1Cc1nc(-c2cccc(Cl)c2)oc1C | inactive: 2.9% |  |  |
| C=Cc1ccc(Cn2c(C(=O)O)c(CNCCc3ccco3)c3ccc(C)cc32)cc1 |  | inactive |  |
| CC1=C(c2ccc(C)cc2)S(=O)(=O)NC1=NCc1ccccc1Cl | inactive: -5.2% |  |  |
| CCCCOC(=O)CSc1ncnc2sc3c(c12)CCC(C)C3 (stereo not drawn) | inactive: -4.18% |  |  |
| Cc1ccc(-n2ncc3c(NCCc4ccc(S(N)(=O)=O)cc4)ncnc32)cc1 | inactive: 21% |  |  |
| CCC(C)Nc1nc2c(c(=O)[nH]c(=O)n2C)n1Cc1ccc(F)cc1 (stereo not drawn) | inactive: 0.173% |  |  |
| Cc1ccccc1Nc1c(-c2ccc(N3CCOCC3)cc2)nc2cccc(C)n12 | inactive: -22.7% |  |  |
| CCOc1ccccc1CNC(=O)c1ccc2nc(N3CCC(C)CC3)sc2c1 | inactive: 0.162% |  |  |
| Cc1cccc(NC(=O)c2ccc(CN3CC(=O)N4CCCCC4C3=O)cc2)c1C (stereo not drawn) | inactive: 3.63% |  |  |
| COCCNC(=O)Cn1nc(-c2ccc(C)cc2)c2ccccc2c1=O | inactive: -9.93% |  |  |
| CCCCn1c(CCCNC(=O)c2cccc(C)c2)nc2ccccc21 | inactive: 4% |  |  |
| Cc1ccc2oc(-c3cccc(NC(=O)c4cccc5c(Cl)cccc45)c3)nc2c1 | inactive: -13% |  |  |
| COc1cccc(Cn2nnc3c(=O)[nH]c(C4CCCN(C(=O)c5ccccc5Cl)C4)nc32)c1 (stereo not drawn) | inactive: 3.98% |  |  |
| COc1ccc(CNc2nc(-c3ccc(Cl)cc3)cc(C(F)(F)F)n2)cc1 | inactive: 55.4% |  |  |
| COc1ccccc1S(=O)(=O)Cc1ccc(C(=O)N2CCN(c3cc(Cl)ccc3C)CC2)o1 | inactive: 0.689% |  |  |
| CCc1ccccc1NC(=O)COCc1cc(-c2ccco2)on1 | inactive: -3.68% |  |  |
| Cc1ccc(N2C(=O)[C@@H]3CSC(c4ccc(Cl)cc4)N3C2=O)cc1 (stereo partly drawn) |  | inactive |  |
| Cc1ccc2occ(CC(=O)N(Cc3ccc(Cl)cc3)Cc3ccco3)c2c1 | inactive: -12.7% |  |  |
| CCOc1ccc(OCC)c(NC(=O)C2CCN(S(=O)(=O)c3ccc4c(c3)CC(C)N4C(C)=O)CC2)c1 (stereo not drawn) |  | inactive |  |
| Cc1cc(C)c(Cn2c(=O)n(CCC(=O)NCc3ccc4c(c3)OCO4)c(=O)c3ccccc32)c(C)c1 |  | inactive |  |
| O=C(NCCc1ccccc1)c1ccc2nc(CCc3ccccc3)oc2c1 | inactive: -6.58% |  |  |
| COc1cc(C2CC(=O)Nc3ccc4ccccc4c32)ccc1OC(=O)C(C)C (stereo not drawn) |  | inactive |  |

| Compound | activity change, negative = inhibition | outcome | Potency |
| --- | --- | --- | --- |
| CCOc1ccc2c(c1)c(=O)c(C(=O)c1ccc(CC)cc1)cn2CC(=O)Nc1cccc(Cl)c1 |  | inactive |  |
| Cc1ccc(-n2c(CCC(=O)O)ccc2-c2cccs2)cc1Cl | inactive: 7.47% |  |  |
| O=C(c1ccco1)N(Cc1cccs1)c1ccc(F)cc1 |  | inactive |  |
| Cc1cc(O)c(C(c2ccccc2)N2CCN(c3ccc(F)cc3)CC2)c(=O)n1Cc1ccco1 (stereo not drawn) | inactive: 17.2% |  |  |
| O=C(NCC1CCN(Cc2cccc(Cl)c2)CC1)Nc1ccc(F)c(Cl)c1 |  |  | active: 20 µM |
| CC(C)OCCCN1C(=O)c2[nH]nc(-c3ccccc3O)c2C1c1ccccc1F (stereo not drawn) |  | inactive |  |
| CCOc1ccccc1N1CC(c2nc3ccccc3n2CCCOc2ccc(OC)cc2)CC1=O (stereo not drawn) | inactive: 6.54% |  |  |
| COc1ccc(CNC(=O)c2sc3nc[nH]c(=O)c3c2C)cc1 | inactive: 34.3% |  |  |
| Cc1noc(-c2ccccc2OCC(=O)Nc2ccccc2[N+](=O)[O-])n1 | inactive: -3.23% |  |  |
| COc1cccc(CNC(=O)c2ccc(-n3c(C)cc4c3CCCC4)cc2)c1 | inactive: -6.47% |  |  |
| CCc1ccccc1NC(=O)c1cc2nc(-c3ccc(Br)cc3)cc(C(F)(F)F)n2n1 | inactive: 3.18% |  |  |
| CC(C)c1nc2ccc(C(=O)NCc3ccccc3Br)cc2o1 |  | inactive |  |
| CCc1ccc(C(=O)CC2(O)C(=O)N(Cc3ccc(C)cc3)c3ccccc32)cc1 (stereo not drawn) |  | inactive |  |
| Cc1cccc(OCc2cc(=O)n3c4c(sc3n2)CCCC4)c1C | inactive: 0.923% |  |  |
| Cc1ccc(-c2cn3nc(N4CCCC(C(=O)NCc5ccc(F)cc5)C4)sc3n2)cc1 (stereo not drawn) | inactive: -5.08% |  |  |
| CC(C)(C)c1ccc(C(=O)N2CCCC(c3nc4c(nnn4Cc4cccc(F)c4)c(=O)[nH]3)C2)cc1 (stereo not drawn) | inactive: -1.1% |  |  |
| CCCCOc1ccccc1C(=O)N(Cc1sccc1C)C1CCS(=O)(=O)C1 (stereo not drawn) | inactive: 2.1% |  |  |
| CCOc1ccc(NC(=O)CSc2c3c(nc4ccccc24)CCCC3)cc1 | inactive: 0.621% |  |  |
| CCN1CCSc2ccc(C(=O)NCc3cccc(Br)c3)cc21 | inactive: -6.3% |  |  |
| COC(=O)c1ccc(NC(=O)CCn2cnnn2)c(C)c1 |  | inactive |  |
| Cc1ccc2nc(CN3CCN(S(=O)(=O)c4ccc(C(C)C)cc4)CC3)oc2c1 | inactive: 1.57% |  |  |
| CN(C)CCCn1c(-c2ccc(Cl)cc2)csc1=Nc1ccccc1 | inactive: 14% |  |  |
| Cc1cc(C)cc(NC(=O)Cn2c(=O)n(-c3ccc(C)c(C)c3)c(=O)c3oc4ccccc4c32)c1 | inactive: -22.2% |  |  |
| COc1ccc(N2CCN(Cc3nc4c(c(=O)n(C)c(=O)n4C)n3C(C)C)CC2)cc1 | inactive: 6.61% |  |  |
| Cc1nn(-c2ccccc2)c(OC(=O)c2ccc(Cl)cc2)c1S(=O)(=O)c1ccccc1 | inactive: 13.5% |  |  |

| Compound | activity change, negative = inhibition | outcome | Potency |
| --- | --- | --- | --- |
| COc1cccc(CNC(=O)Cn2ncn3c(cc4ccccc43)c2=O)c1 |  | inactive |  |
| Cc1ccc(-c2nc3cccc(C)n3c2Nc2ccc3c(c2)OCO3)o1 | inactive: -5.23% |  |  |
| CCOc1ccccc1C(=O)N1CCc2cc(OC)c(OC)cc2C1COc1ccc(OC)cc1 (stereo not drawn) |  | inactive |  |
| CCCNC(=O)c1ccc(Cn2c(SCC(N)=O)nc3ccccc3c2=O)cc1 |  | inactive |  |
| COc1ccc(OC)c(NC(=O)c2cc3cccc(OC)c3oc2=O)c1 | inactive: -5.33% |  |  |
| COCCCn1c(SCC(=O)Nc2ccc(OC)cc2)nc2c(sc3ccccc32)c1=O | inactive: -1.58% |  |  |
| O=C(CSc1nc(=O)n(CCN2CCOCC2)c2c1CCC2)Nc1ccc(F)cc1F |  | inactive |  |
| CC(C)CC(=O)Nc1ccc2nc(SCC(=O)N3CCOCC3)sc2c1 | inactive: -9.5% |  |  |
| O=C(c1cc(-c2ccc(Br)cc2)n[nH]1)N1CCN(S(=O)(=O)c2ccc(Cl)s2)CC1 | inactive: 7.3% |  |  |
| COc1ccc(CNS(=O)(=O)c2cc3c(cc2Cl)NC(=O)CO3)cc1 | inactive: 5.37% |  |  |
| CCC(=O)Oc1c(Sc2ccc(C)cc2)c(C)nn1-c1ccccc1 |  | inactive |  |
| CCOC(=O)c1cc(-c2ccc(F)cc2)n(CCC(=O)Nc2cc(OC)cc(OC)c2)c1C | inactive: -15.9% |  |  |
| O=C(Nc1ccccc1C(F)(F)F)C1CCN(S(=O)(=O)c2ccccc2)CC1 | inactive: -18.6% |  |  |
| O=C(CSc1nc2ncccc2o1)Nc1ccc(Cl)cc1F | inactive: 2.66% |  |  |
| Cn1c(=O)c2c(nc(N3CCOCC3)n2Cc2ccccc2F)n(C)c1=O | inactive: -0.395% |  |  |
| CCCc1nn2c(=O)cc(COC(=O)c3cccc(NC(=O)c4ccc(OCC)cc4)c3)nc2s1 |  | inactive |  |
| O=C(Cn1cc(SCc2ccc(Cl)cc2)c2ccccc21)N1CCOCC1 | inactive: 6.44% |  |  |
| CC(C)Oc1ccc(C(=O)Nc2nnc3n2CCS3)cc1 |  | inactive |  |
| COC(=O)CSc1nc2sc3c(c2c(=O)n1-c1ccccc1)C(C)CCC3 (stereo not drawn) | inactive: 6.46% |  |  |
| COc1cc(C2c3c(-c4cc(C)ccc4O)n[nH]c3C(=O)N2Cc2ccco2)cc(OC)c1OC (stereo not drawn) | inactive: 3.92% |  |  |
| COc1ccc(NC(=O)c2cc(S(=O)(=O)N3CCCC(C)C3)cn2C)c(OC)c1 (stereo not drawn) |  | inactive |  |
| COc1ccc(NC(=O)CSc2nc3ccccc3n2CC(=O)N(C)C2CCCCC2)cc1 | inactive: -23% |  |  |
| COc1ccc(-c2cc(OC(=O)c3cccc(Cl)c3)c3c(C)oc(C)c3c(=O)c2)cc1OC | inactive: 18.9% |  |  |
